Out of some 48,000 compounds screened, about 120 (0.25%) were called active. Another 4% or so got no clear call; they are omitted. Calls follow the shape of the dose curve; as a rule, active = well fitted activation curve with a large enough effect; inconclusive = small, poorly fitted or top-dose-only effect, or another doubt; inactive = no such curve, though single readings can be large or run the other way. The list shows a part of the results.
Assay: Primary qHTS for Identification of Small Molecule Activators of Huntingtin-Antisense Promoter Activity; also: nearly all actives have a fitted effect of over 55% in size
Details: HEK293 HTT-AS promoter firefly luciferase reporter (activity 0% = vehicle and -100% = no light), 24 h; series mostly up to 57.5 µM; activity change, positive = activation: at the top concentration
Summary of the method: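 HEK293 luciferase promoter-reporter cells (2,500/well) plated 24 h, then compounds added at up to 57.5 uM final for 24 h at 37 °C. Firefly luminescence by Dual-Glo, normalized to vehicle (0%) and zero RLU (-100%).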

Activity change, positive = activation, inactive:
COc1ccccc1OC(C)C(=O)Nc1c(C(=O)c2ccc(Cl)cc2)oc2ccccc12 (stereo unspecified) -10.4%
CCn1c(C)c(C)c2cc(C(=O)NCCCN3CCCCC3)ccc21 -11.9%
CCC(=O)N1c2ccccc2CC1C(=O)NCCN1CCN(c2cccc(C(F)(F)F)c2)CC1 (stereo unspecified) -18.6%
Cc1ccccc1CSc1nc2cc(C(=O)NC3CCCC3)ccc2c(=O)n1Cc1ccccc1 -4.06%
Cc1cc2c(cc1C)NC(CC(=O)Nc1ccccc1)C(=O)N2 (stereo unspecified) -4.17%
Cc1ccc(O)c(NC(=O)c2ccc(Br)c(S(=O)(=O)N3CCCCC3)c2)c1 -42%
CCN(Cc1ccccc1)C(=O)Cn1cc(S(=O)(=O)Cc2cccc(Cl)c2)c2ccccc21 -18.7%
CCCSc1ccc2nc(NC(=O)OC)[nH]c2c1 25.2%
CCc1ccc(NC(=O)C(=O)NCC(c2cccnc2)N2CCN(Cc3ccccc3)CC2)cc1 (stereo unspecified) -24.8%
O=C(CCCn1c(=O)c2cccn2c2ccc(F)cc21)NCc1ccc(Cl)cc1 -22.4%
Cc1ccc(-n2nc(CO)c(C(=O)NC(C)CCCc3ccccc3)n2)cc1C (stereo unspecified) -35.3%
CC1CCN(C(=O)CSc2c(C(C)C)cnc3c2c(=O)n(C)c(=O)n3C)CC1 -16.8%
COC(=O)CC1Oc2ccccc2-n2cc(-c3ccccc3)nc21 (stereo unspecified) -23.7%
O=S(=O)(c1ccccc1)c1nc(-c2ccc(Cl)cc2Cl)oc1N1CCCCC1 -16.6%
COc1ccc(C)cc1NC(=O)Cn1c(=O)cc(C)c2c(C)nn(C)c21 -93.6%
Cc1ccc(C(=O)Nc2cccc(O)c2)cc1S(=O)(=O)N1CCCCCC1 -5.54%
CCN(CC)CCCNC(=O)c1cn(CC)c2ccc(S(=O)(=O)N3CCc4ccccc4C3)cc2c1=O -5.94%
COc1cccc(CNC(=O)c2ccc3c(c2)nnn3C2CCCC2)c1 5.37%
Cc1ccc(N(CC(=O)NCc2ccc(F)cc2)S(=O)(=O)c2c(C)nn(C)c2C)cc1 -18.5%
CCCCSCCCNC(=O)c1cn(C)c2ccc(S(=O)(=O)N3CCCCC3)cc2c1=O -9.81%
COc1ccc(-n2nc(C(=O)Nc3ccc(C)cn3)c3c4ccccc4n(C)c3c2=O)cc1 -6.49%
O=C(CNC(=O)c1ccccc1F)OCc1cc(=O)n2ccsc2n1 -2.18%
CCN(CC)C(=O)Cn1c(=O)n(-c2ccc(OC)cc2OC)c(=O)c2c(C)c(C(=O)N(CC)CC)sc21 -6.8%
COc1ccc(NC(=O)c2c(-c3ccc(C)cc3)nnc3ccccc23)cc1Cl -10.3%
COc1ccccc1C(=O)Nc1nnc(SCc2cc(=O)c3cc(Cl)ccc3[nH]2)s1 -7.87%
COc1ccc(OC)c(NC(=O)Cn2ccc3ccccc3c2=O)c1 -2.04%
Cc1ccc(C)c(N2CCN(C(=O)C3CCCN(S(=O)(=O)c4cccc5nsnc45)C3)CC2)c1 (stereo unspecified) -45.5%
CCN1CCN(c2cc3c(cc2F)c(=O)c(S(=O)(=O)c2ccc(OC)cc2)cn3CC)CC1 -11.9%
Cn1c(C(=O)NCc2ccccc2F)cc2oc3ccccc3c21 10.1%
Cc1c(C(=O)Nc2cccc(C(F)(F)F)c2)sc2nc3n(c(=O)c12)CCCC3 -9.86%
O=C(c1ccco1)n1nc(-c2ccccc2)nc1NCc1ccc(F)cc1 -1.23%
COc1cccc2sc(N(Cc3cccnc3)C(=O)Cc3ccccc3)nc12 -25.6%
CCN1CCN(c2oc(-c3ccc(COc4ccc(C)cc4)o3)nc2C#N)CC1 -20.9%
CCCCNc1ncnc2c1nnn2C 10.4%
COc1ccc2oc(-c3cccc(NC(=O)c4ccc(C#N)cc4F)c3)nc2c1 17.9%
CCCCNC(=O)c1ccc2c(c1)NC(=O)C(CS(=O)(=O)Cc1cccc(C)c1)N2 (stereo unspecified) -13.8%
COc1cc(C(=O)Nc2ccc3[nH]c(=O)sc3c2)cc(OC)c1OC -5.55%
CC1=C(C(=O)Nc2cccnc2)C(c2cccc(F)c2)n2nc(SCc3ccccc3)nc2N1 (stereo unspecified) -13.4%
CC(C)C(=O)N1c2ncnn2C2(CCCCC2)[C@@H]2CCCC[C@@H]21 -36.7%
COc1cccc(NC(=O)Cn2c(=O)n(-c3ccc(Cl)cc3)c(=O)c3oc4ccccc4c32)c1 -17%
COc1ccc(C2CC(=O)N(Cc3ccc(F)cc3)c3ccccc3S2)cc1 (stereo unspecified) -49.2%
Cc1ccc(S(=O)(=O)N2CCN(Cc3noc(CCC(=O)N4CCCCC4)n3)CC2)c(C)c1 -24.1%
COc1cccc(C(=O)NCC(=O)OCc2cc(=O)n3c(C)csc3n2)c1 17.2%
CC(C)Cn1c(=O)c2sccc2n2c(CCCC(=O)NCCc3ccccc3)nnc12 -1.72%
Cc1ccc(S(=O)(=O)c2cn(CC(=O)Nc3ccc4c(c3)OCO4)c3ccccc3c2=O)cc1 -4.9%
Cc1sc2ncn(CC(=O)N3CCN(c4ccc(F)cc4)CC3)c(=O)c2c1S(=O)(=O)N1CCCCC1 8.14%
Cc1ccc(Nc2nc3c(S(=O)(=O)c4ccccc4)nnn3c3ccsc23)c(C)c1 -14.6%
Cc1cccc2sc(N(CCCN(C)C)C(=O)c3ccc(Cl)s3)nc12 -6.68%
COc1cc(C2C(C(=O)OCC(C)C)=C(C)N=C3SCCC(=O)N32)ccc1OCc1ccccc1 (stereo unspecified) -18.7%
Cc1cccc(NC(=O)Cn2nnc(C(=O)Nc3ccc(F)c(Cl)c3)c2N)c1 -18.7%
COc1cccc(NC(=O)CSc2nc(=O)n(Cc3ccco3)c3c2CCC3)c1 -54.2%
N#Cc1c(NC(=O)c2cccc3ccccc23)sc2c1CCCC2 -31.9%
CC1=C(C(=O)Nc2ccc(C)cc2C)C(C(C)C)n2nc(SCc3ccccc3Cl)nc2N1 (stereo unspecified) -12.7%
Cc1cc(C)c2nc(N(Cc3cccnc3)C(=O)c3ccc(S(=O)(=O)N(C)C)cc3)sc2c1 0.317%
C=CCC(CC=C)(CNC(=O)C(=O)Nc1cc(C)ccc1OC)c1ccc(OC)c(OC)c1 -9.53%
O=C(Cn1cc(S(=O)(=O)N2CCCC2)c(S(=O)(=O)N2CCCC2)c1)Nc1cccc(F)c1 -6.5%
COc1ccccc1CNC(=O)CN1C(=O)COc2ccc(S(=O)(=O)N3CCC(C)CC3)cc21 -14.8%
CCc1ccc(NC(=O)C(C)n2nnc3sc(-c4ccccc4)cc3c2=O)cc1 (stereo unspecified) -5.94%
CCOC(=O)c1cccc(NC(=O)C2CCCN(S(=O)(=O)c3ccc4c(c3)oc(=O)n4C)C2)c1 (stereo unspecified) -31.9%
COc1ccc(NC(=O)/C(C#N)=C/c2cc(C)n(-c3ccc(F)cc3)c2C)cc1 -8.02%
CC(C)C(=O)N(Cc1ccccc1)S(=O)(=O)c1ccc2c(c1)oc(=O)n2C -32.6%
Cc1nc2nncn2c(NCc2ccc(Cl)cc2)c1C -49.4%
Cc1ccc(-n2c(=O)c3c4c(sc3n(Cc3cccc(Cl)c3)c2=O)CCC4)cc1C -19.9%
Cc1ccc(CN(C(=O)COc2ccc(Cl)c(C)c2)C2CCS(=O)(=O)C2)o1 (stereo unspecified) -36.1%
Cc1nc2nc(SCC(=O)O)nn2c(C)c1Cc1c(F)cccc1Cl 7.28%
Cc1ccc(Cl)cc1NC(=O)Cn1c(=O)n(CCCS(=O)(=O)C2CCCCC2)c(=O)c2ccccc21 -25.4%
Cc1csc2nc(COC(=O)c3ccccc3NC(=O)COc3ccccc3F)cc(=O)n12 -35.8%
CCOc1ccc(NC(=O)CC2C(=O)N(c3ccccc3)C(=O)N2C2CCCCC2)cc1 (stereo unspecified) 0%
O=c1c2cn[nH]c2nc(SCc2cccc(Br)c2)n1-c1ccc(Cl)cc1 -31.5%
COc1ccccc1CNC(=O)NCc1noc2ccc(C)cc12 -15.3%
COc1ccc(CNC(=O)c2nc(SC(C)C)ncc2Cl)cc1 10.7%
CCOC(=O)c1c(-c2ccccc2)csc1NC(=O)c1cc(-c2ccc(Br)cc2)on1 -4.78%
Cc1nc2ccc(S(=O)(=O)CCC(=O)Nc3ccc(C)c(C)c3)cc2s1 -21.2%
COCCCNC(=O)c1sc2nc3n(c(=O)c2c1C)CCC3 13%
CCOc1ccc(CCNC(=O)CCc2c(C)nc3c(-c4ccccc4)c(C)nn3c2C)cc1OCC -0.283%
COc1cc2c(cc1OC)C(COc1ccc3c(C)cc(=O)oc3c1)N(C(=O)C(C)C)CC2 (stereo unspecified) -23.5%
CCOC(=O)c1nc(Nc2ccc(C(C)=O)cc2)c2ccccc2n1 -11.9%
O=C(Nc1c(C(=O)Nc2ccc(F)cc2)oc2ccccc12)c1cc2ccccc2o1 23.7%
Cn1ccc2cc3c(cc21)CCN3C(=O)Nc1cccnc1 16.2%
COc1ccc(Cn2c(=O)c3cccnc3n(CC(=O)Nc3ccc(C)c(F)c3)c2=O)cc1 -19.2%
Cc1cccc(-n2ccnc2SCC(=O)Nc2ccc(F)cc2F)c1C -37%
Cc1cc(Oc2c(C(F)(F)F)oc3c(CN4CCC(C)CC4)c(O)ccc3c2=O)cc(C)c1Cl -8.9%
O=C(Cn1c(=O)oc2cc(S(=O)(=O)N3CCCCCC3)ccc21)NCc1ccccc1Cl -54.5%
Cc1ccc(C)c(CN2CCC(CNC(=O)Nc3ccc(Br)cc3F)CC2)c1 -37.4%
Cc1ccc(C)c(CNC(=O)c2ccc3c(c2)nc2n3CCCCC2)c1 3.31%
C=CCc1cccc(C=NNC(=O)CN2CCN(Cc3ccccc3)CC2)c1O -24.6%
COc1ccc(-c2c3c(=O)n(C)c(=O)n(C)c3c3c(-c4cccc(C)c4)nc4ccccc4n23)cc1 -27.4%
COc1ccc(S(=O)(=O)NCCCO)cc1-c1nnc2c3ccccc3c(C)nn12 2.55%
CCOc1ccc(NC(=O)Cn2cc(C(=O)c3ccc(CC)cc3)c(=O)c3cc(OC)c(OC)cc32)cc1 -5.2%
COc1ccc(NS(=O)(=O)c2ccc3c(c2)CCN3C(=O)CCC(=O)O)cc1Cl -4.49%
COc1ccc2cc3cc(C(=O)N4CCN(c5cccc(Cl)c5)CC4)sc3nc2c1 2.99%
CCc1ccc(-n2c(=O)c3sc4ccccc4c3n(CC(=O)NC3CCCCC3)c2=O)cc1 -4.78%
Cc1ccc(NC(=O)Cn2nc(-c3ccncc3)ccc2=O)cc1Cl -10.3%
CCOC(=O)c1ccc2c(c1)N(C(CC)C(=O)Nc1ccccc1OC)C(=O)c1ccccc1S2 (stereo unspecified) -25%
CC(C)CCNC(=O)CSc1nc2ccccc2nc1Cc1ccccc1 -9.45%
Cc1cc(NC(=O)CCS(=O)(=O)c2cc(Br)cc3c2N(C(=O)C2CC2)CC3)ccc1Br -17.8%

From PubChem BioAssay AID1508624 (National Center for Advancing Translational Sciences (NCATS), 2021)
